Reference: PubChem BioAssay AID624296 (National Center for Advancing Translational Sciences (NCATS), 2012)
Screen size: about 350,000 compounds; about 9,900 (2.8%) were called active. The inconclusive results got no clear call from the source; some entries with a clear call stand among them for comparison. Calls follow the shape of the dose curve; as a rule, active = well fitted activation curve with a large enough effect; inconclusive = small, poorly fitted or top-dose-only effect; inactive = no such curve, though single readings can be large or run the other way. Potencies of inconclusive entries are left out as doubtful fits.
Potency is read from the fitted curve at half-maximal effect; tags tell the direction and shape of the fitted curve.

Test: A quantitative high throughput screen for small molecules that induce DNA re-replication in MCF 10a normal breast cells. Also: nearly all actives have a fitted effect of over 50% in size.
Conditions: MCF 10A DNA re-replication, Hoechst nuclear intensity, 48 h; series mostly up to 46.1 µM
With `COc1ccc(/C=N/N(C)C2=NCCN2)c(OC)c1OC` the Potency was “inactive”.
With `O=C(/C=C/c1ccc2c(c1)OCO2)NCCS(=O)(=O)N1CCN(c2ccc(F)cc2)CC1` the Potency was “inactive”.
For `Cc1cc(C)c(NC(=S)NC(CO)(CO)CO)c(C)c1`, the Potency was “inactive”.
For `COc1ccc(CN2CCN(S(=O)(=O)c3ccc(C)cc3)CC2)cc1Br`, the Potency was inconclusive [activator, single point].
In the case of `CCN(CC)c1ccc(/C=C/c2cccc[n+]2C)c(OC)c1`, the Potency is reported as inconclusive [activator, single point].
In the case of `CC(=O)Nc1ccc(S(=O)(=O)N2CCC(C(=O)c3ccc(Cl)cc3)CC2)cc1`, the Potency is reported as inconclusive [activator, single point].
For `COC1=C(C)C(=O)C2=C(C1=O)C1C3CC4=C(C(=O)C(OC)=C(C)C4=O)C(CNC(=O)C(C)=O)N3C(C#N)C(C2)N1C` (stereo not drawn), the Potency was inconclusive [activator, full curve, poor fit].
With `Cc1ccc(Nc2nc(CSc3nnnn3-c3ccccc3)cc(=O)[nH]2)cc1` the Potency was inconclusive [activator, single point].
For `Cc1ccc(NC(=O)CC(N)=S)cc1`, the Potency was inconclusive [activator, single point].
In the case of `O=[N+]([O-])c1cnc(Nc2ccc(Cl)cn2)c([N+](=O)[O-])c1`, the Potency is reported as “inactive”.
In the case of `Cc1nc(-c2ccccc2Cl)sc1C(=O)/C=C/N(C)C`, the Potency is reported as inconclusive [activator, single point].
In the case of `COc1ccc2nc3n(c(=O)c2c1)-c1ccc(Cl)cc1C(=O)NC3Cc1ccc(O)cc1` (stereo not drawn), the Potency is reported as “inactive”.
With `CC(C)C(NC(=O)c1c(F)cccc1F)C(=O)NCCc1ccc(S(N)(=O)=O)cc1` (stereo not drawn) the Potency was “inactive”.
In the case of `CC(C)c1ccc(CNCc2ccccc2)cc1`, the Potency is reported as “inactive”.
In the case of `O=C(c1ccccc1)c1ccccc1N1C(=O)C=CC1=O`, the Potency is reported as active: 5.17 µM.
For `CC1(C)Cc2ccccc2-c2nnc(SCC(=O)N3CCN(c4ccccc4)CC3)n21`, the Potency was “inactive”.
With `Cn1nccc1NC(=O)CC1(CC(=O)O)CCCCC1` the Potency was “inactive”.
For `CCc1ccc(N2CC(C(=O)OCC(=O)Nc3ccc([N+](=O)[O-])cc3)CC2=O)cc1` (stereo not drawn), the Potency was “inactive”.
For `CN(C(=O)COC(=O)CNC(=O)c1ccccc1F)C1CCCCC1`, the Potency was “inactive”.
In the case of `CC(C)NS(=O)(=O)c1ccc(OCC(=O)N(C)Cc2ccccc2)cc1`, the Potency is reported as inconclusive [activator, full curve].
In the case of `CN1CC=C2C(C#N)=C(N)C(C#N)(C#N)[C@H](c3cccc(Cl)c3)C2C1` (stereo partly drawn), the Potency is reported as “inactive”.
In the case of `O=C(CCc1cn(Cc2ccc(F)cc2)c2ccccc12)N1CCOCC1`, the Potency is reported as “inactive”.
With `O=C(c1cccc(S(=O)(=O)N2CCOCC2)c1)N1CCN(C/C=C/c2ccccc2)CC1` the Potency was inconclusive [activator, partial curve].
In the case of `COc1cc(-c2nnc(SCC(=O)N3c4ccccc4Sc4ccccc43)o2)cc(OC)c1OC`, the Potency is reported as inconclusive [activator, full curve, poor fit].
In the case of `C=C(C)Cn1c(-c2ccccc2)nc2ccccc21`, the Potency is reported as “inactive”.
With `O=C(c1cc2cc(Br)ccc2o1)N1CCCCC1` the Potency was “inactive”.
For `O=C(NC1CCCC1)c1cccc2c1C(=O)c1ccc(Cl)cc1S2(=O)=O`, the Potency was inconclusive [activator, full curve, poor fit].
With `CN(C)CCC(=O)C(Cc1ccccc1)c1ccccc1` (stereo not drawn) the Potency was active: 4.11 µM.
For `CC(C)N(Cc1nc(-c2ccccc2)no1)C(=O)c1ccc2c(c1)OCO2`, the Potency was inconclusive [activator, single point].
In the case of `CS(=O)(=O)c1cccc(S(=O)(=O)N2CCN(c3ccccn3)CC2)c1`, the Potency is reported as inconclusive [activator, partial curve, poor fit].
For `COCCNC(=S)N/N=C(\C)c1ccccc1OC`, the Potency was “inactive”.
For `FC(F)C(F)(F)c1cc(-c2ccc(Cl)cc2)n[nH]1`, the Potency was inconclusive [activator, single point].
In the case of `CCCNC(=O)c1c(N)n(-c2ccc(S(N)(=O)=O)cc2)c2nc3ccccc3nc12`, the Potency is reported as inconclusive [activator, full curve, poor fit].
In the case of `COc1ccc(C(c2c(C)[nH]n(C(N)=S)c2=O)C(C#N)C#N)cc1` (stereo not drawn), the Potency is reported as inconclusive [activator, single point].
With `CN(CC(=O)Nc1ccc(Cl)c(C(F)(F)F)c1)CC(=O)NC1CCCCC1` the Potency was inconclusive [activator, single point].
For `CNc1nc(-c2c[nH]c3ccccc23)cs1`, the Potency was “inactive”.
In the case of `CCOC(=O)/C(C#N)=C1\C(=O)N(Cc2ccccc2)c2ccccc21`, the Potency is reported as inconclusive [activator, single point].
For `COC(=O)c1cn(C(=O)c2ccc(OC)cc2)c2ccccc12`, the Potency was active: 5.8 µM.
With `O=C(CN1CCN(S(=O)(=O)c2ccc(F)cc2)CC1)Nc1ccc(Cl)c(C(F)(F)F)c1` the Potency was inconclusive [activator, partial curve, poor fit].
With `COc1cccc(CN(CC(=O)NCc2ccccc2)S(=O)(=O)CCl)c1` the Potency was “inactive”.
For `Cc1ccc(CNC(=O)c2c(-c3ccccc3)sc3ccccc23)o1`, the Potency was inconclusive [activator, single point].
For `COc1ccc(-c2cn[nH]c2N)cc1OC`, the Potency was inconclusive [activator, partial curve, poor fit].
In the case of `C=CCCCCCCCC(=O)OC`, the Potency is reported as inconclusive [activator, single point].
For `COCCCN1CN(Cc2ccccc2)CNC1=S`, the Potency was “inactive”.
In the case of `Cc1nc(SCC(=O)N2CCCCCC2)[nH]c(=O)c1C`, the Potency is reported as “inactive”.
In the case of `O=C(N/N=C/c1cccc2nccnc12)c1ccncc1`, the Potency is reported as “inactive”.
For `COc1ccc(-c2[nH]c(-c3ccc4c(c3)OCO4)nc2-c2ccccc2)cc1`, the Potency was inconclusive [activator, partial curve, poor fit].
For `NC(=O)c1cc(Br)cc2c3c([nH]c12)CCCC3`, the Potency was inconclusive [activator, partial curve, poor fit].
In the case of `Oc1ccc(N=Nc2ccc3c(c2)OCCO3)c2ncccc12`, the Potency is reported as inconclusive [activator, partial curve, poor fit].
In the case of `N#C/C(=C\c1ccccc1)C(=O)NCc1ccc(F)cc1`, the Potency is reported as inconclusive [activator, single point].
In the case of `COc1ccc(NC(=O)c2cc3c(=O)n(C)c4ccccc4c3s2)cc1OC`, the Potency is reported as inconclusive [activator, partial curve, poor fit].
For `O=[N+]([O-])c1cc([N+](=O)[O-])c(N2CCOCC2)cc1NCc1ccccc1`, the Potency was inconclusive [activator, partial curve].
For `COc1ccc2c(c1)OC[C@H]1[C@H]2N2C(=O)c3cc(Cl)ccc3NC(=O)[C@@]2(C)[C@H]1c1ccccc1`, the Potency was “inactive”.
With `O=C(O)COc1ccc(NC(=O)c2cccs2)cc1` the Potency was “inactive”.
In the case of `CC[C@@]1(C(=O)OC)N[C@H](CN(C)C(=O)C2CCCCC2)[C@@H]2C(=O)N(C)C(=O)[C@@H]21`, the Potency is reported as inconclusive [activator, partial curve, poor fit].
In the case of `O=C(Cc1ccc([N+](=O)[O-])cc1)OCc1c(F)cccc1Cl`, the Potency is reported as “inactive”.
With `C=CCN1C(=O)/C(=C2/Sc3ccc(OC)cc3N2C)SC1=Nc1ccccc1` the Potency was inconclusive [activator, partial curve, poor fit].
For `O=C(NC(=S)Nc1ccc2oc(=O)ccc2c1)c1cc2ccccc2o1`, the Potency was “inactive”.
For `C[C@H]1CN=C(N(C)C)N1CCc1ccc(F)cc1`, the Potency was “inactive”.
For `COc1ccc2c(C)cc(SCC(=O)Nc3cc(C(N)=O)cc(C(N)=O)c3)nc2c1`, the Potency was inconclusive [activator, single point].
In the case of `O=c1[nH]c(/C=C/c2cccc3ccccc23)nc2ccccc12`, the Potency is reported as inconclusive [activator, single point].
In the case of `Cc1ccc(C(=O)C2=C(O)C(=O)N(c3ncccn3)C2c2ccc(F)cc2)o1` (stereo not drawn), the Potency is reported as inconclusive [activator, single point].
With `Cc1ccc(OCC(=O)N/N=C\c2ccc(O)cc2)c([N+](=O)[O-])c1` the Potency was inconclusive [activator, single point].
In the case of `COc1ccc(NC(=O)CSc2nc3nc(-c4cccs4)cc(C(F)(F)F)c3c(=O)[nH]2)c(OC)c1`, the Potency is reported as inconclusive [activator, single point].
With `CC(C)C(NC(=O)c1ccccc1)C(=O)OCC(=O)N1CCN(c2ccccc2)CC1` (stereo not drawn) the Potency was “inactive”.
With `O=C(CCl)c1ccc2[nH]c(=O)oc2c1` the Potency was inconclusive [activator, single point].
For `O=C(NCc1ccccc1Cl)C1CCCN1C(=O)Nc1ccccc1` (stereo not drawn), the Potency was “inactive”.
For `COc1ccc(NC(=O)c2ccc(NC3CC(=O)N(c4ccc(C)cc4C)C3=O)cc2)cc1` (stereo not drawn), the Potency was inconclusive [activator, single point].
For `COc1ccc(N2CCN(C(=O)c3cccc(S(=O)(=O)N4CCCc5ccccc54)c3)CC2)cc1`, the Potency was “inactive”.
In the case of `Cc1cc(C=C2C(=O)c3ccccc3C2=O)c(C)n1-c1cccc(C(=O)O)c1`, the Potency is reported as “inactive”.
For `C[C@H](CO)N1C[C@H](C)[C@@H](CN(C)Cc2ccc(-c3ccccc3)cc2)Oc2c(NC(=O)Nc3ccc4c(c3)OCO4)cccc2C1=O`, the Potency was inconclusive [activator, single point].
In the case of `CCNC(=O)CON=C1c2ccccc2-c2ccccc21`, the Potency is reported as “inactive”.
With `O=[N+]([O-])c1nn(-c2ccc3c(c2)OCCO3)n(O)c1=NCc1ccc(F)cc1` the Potency was inconclusive [activator, single point].
